# According to the supplement of paper PMC8728848:
# This is one part of the list.
# Columns and labels:
# Experiment in all cases: glycan array binding signal (z-score within array); higher = stronger binding
# Conditions in all cases: glycan notation: IUPAC condensed, linker removed
# [1] = target: Gal(b1-3)GlcNAc
# Summary of the method: (§1)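 Glycan array binding is given as a within-array Z-score, which can be read as non-binding when negative. The arrays, 3228 of them, came from the Consortium for Functional Glycomics database and were retained only where the protein sequence was available. Z-scores were averaged across arrays of the same protein sequence at different concentrations or buffers and across linkers.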
# [2] = target: Gal(b1-3)GlcNAc(a1-3)Gal(b1-4)GlcNAc
# Summary of the method: as §1
# [3] = target: Gal(b1-3)GlcNAc(a1-6)Gal(b1-4)GlcNAc
# Summary of the method: as §1
# [4] = target: Gal(b1-3)GlcNAc(b1-2)Man(a1-3)[Gal(b1-3)GlcNAc(b1-2)Man(a1-6)]Man(b1-4)GlcNAc(b1-4)GlcNAc
# Summary of the method: as §1
# [5] = target: Gal(b1-3)GlcNAc(b1-2)Man(a1-3)[Gal(b1-3)GlcNAc(b1-2)Man(a1-6)]Man(b1-4)GlcNAc(b1-4)[Fuc(a1-6)]GlcNAc
# Summary of the method: as §1
# [6] = target: Gal(b1-3)GlcNAc(b1-2)Man(a1-3)[GlcNAc(b1-4)][Gal(b1-3)GlcNAc(b1-2)Man(a1-6)]Man(b1-4)GlcNAc(b1-4)GlcNAc
# Summary of the method: as §1
# [7] = target: Gal(b1-3)GlcNAc(b1-2)[Gal(b1-3)GlcNAc(b1-6)]Man(a1-6)[Gal(b1-3)GlcNAc(b1-2)Man(a1-3)]Man(b1-4)GlcNAc(b1-4)GlcNAc
# Summary of the method: as §1
# [8] = target: Gal(b1-3)GlcNAc(b1-3)Gal(b1-3)GlcNAc
# Summary of the method: as §1
# [9] = target: Gal(b1-3)GlcNAc(b1-3)Gal(b1-4)Glc
# Summary of the method: as §1
# [10] = target: Gal(b1-3)GlcNAc(b1-3)Gal(b1-4)GlcNAc
# Summary of the method: as §1
# [11] = target: Gal(b1-3)GlcNAc(b1-3)Gal(b1-4)GlcNAc(b1-6)[Gal(b1-3)GlcNAc(b1-3)]Gal(b1-4)Glc
# Summary of the method: as §1
# [12] = target: Gal(b1-3)GlcNAc(b1-3)Gal(b1-4)[Fuc(a1-3)]GlcNAc(b1-6)[Gal(b1-3)GlcNAc(b1-3)]Gal(b1-4)Glc
# Summary of the method: as §1
# [13] = target: Gal(b1-3)GlcNAc(b1-3)GalNAc
# Summary of the method: as §1
# [14] = target: Gal(b1-3)GlcNAc(b1-6)Gal(b1-4)GlcNAc
# Summary of the method: as §1
# [15] = target: Gal(b1-3)GlcNAc(b1-6)GalNAc
# Summary of the method: as §1
# [16] = target: Gal(b1-3)GlcNAc6S
# Summary of the method: as §1
# [17] = target: Gal(b1-3)[Fuc(a1-4)]GlcNAc
# Summary of the method: as §1
# [18] = target: Gal(b1-3)[Fuc(a1-4)]GlcNAc(b1-2)Man(a1-3)[Gal(b1-3)[Fuc(a1-4)]GlcNAc(b1-2)Man(a1-6)]Man(b1-4)GlcNAc(b1-4)GlcNAc
# Summary of the method: as §1
# [19] = target: Gal(b1-3)[Fuc(a1-4)]GlcNAc(b1-2)Man(a1-3)[Gal(b1-3)[Fuc(a1-4)]GlcNAc(b1-2)Man(a1-6)]Man(b1-4)GlcNAc(b1-4)[Fuc(a1-6)]GlcNAc
# Summary of the method: as §1
# [20] = target: Gal(b1-3)[Fuc(a1-4)]GlcNAc(b1-3)Gal(b1-3)[Fuc(a1-4)]GlcNAc
# Summary of the method: as §1
# [21] = target: Gal(b1-3)[Fuc(a1-4)]GlcNAc(b1-3)Gal(b1-4)GlcNAc
# Summary of the method: as §1
# [22] = target: Gal(b1-3)[Fuc(a1-4)]GlcNAc(b1-3)Gal(b1-4)[Fuc(a1-3)]GlcNAc
# Summary of the method: as §1
# [23] = target: Gal(b1-3)[Fuc(a1-4)]GlcNAc(b1-6)GalNAc
# Summary of the method: as §1
# [24] = target: Gal(b1-3)[GlcNAc(b1-6)]GalNAc
# Summary of the method: as §1
# [25] = target: Gal(b1-3)[Neu5Ac(a2-6)]GalNAc
# Summary of the method: as §1
# [26] = target: Gal(b1-3)[Neu5Ac(a2-6)]GlcNAc(b1-6)Gal(b1-4)Glc
# Summary of the method: as §1
# [27] = target: Gal(b1-3)[Neu5Ac(b2-6)]GalNAc
# Summary of the method: as §1
# [28] = target: Gal(b1-4)Gal
# Summary of the method: as §1
# [29] = target: Gal(b1-4)GalNAc(a1-3)[Fuc(a1-2)]Gal(b1-4)GlcNAc
# Summary of the method: as §1
# [30] = target: Gal(b1-4)GalNAc(b1-3)[Fuc(a1-2)]Gal(b1-4)GlcNAc
# Summary of the method: as §1
# [31] = target: Gal(b1-4)Glc
# Summary of the method: as §1
# [32] = target: Gal(b1-4)Glc6S
# Summary of the method: as §1
# [33] = target: Gal(b1-4)GlcNAc
# Summary of the method: as §1
# [34] = target: Gal(b1-4)GlcNAc(a1-6)Gal(b1-4)GlcNAc
# Summary of the method: as §1
# [35] = target: Gal(b1-4)GlcNAc(b1-2)Man
# Summary of the method: as §1
# [36] = target: Gal(b1-4)GlcNAc(b1-2)Man(a1-3)Man(b1-4)GlcNAc(b1-4)GlcNAc
# Summary of the method: as §1
# [37] = target: Gal(b1-4)GlcNAc(b1-2)Man(a1-3)[Gal(b1-4)GlcNAc(b1-2)Man(a1-6)]Man(b1-4)GlcNAc(b1-4)GlcNAc
# Summary of the method: as §1
# [38] = target: Gal(b1-4)GlcNAc(b1-2)Man(a1-3)[Gal(b1-4)GlcNAc(b1-2)Man(a1-6)]Man(b1-4)GlcNAc(b1-4)[Fuc(a1-6)]GlcNAc
# Summary of the method: as §1
# [39] = target: Gal(b1-4)GlcNAc(b1-2)Man(a1-3)[Gal(b1-4)GlcNAc(b1-2)][GlcNAc(b1-4)]Man(b1-4)GlcNAc(b1-4)GlcNAc
# Summary of the method: as §1
# [40] = target: Gal(b1-4)GlcNAc(b1-2)Man(a1-3)[GlcNAc(b1-2)Man(a1-6)]Man(b1-4)GlcNAc(b1-4)GlcNAc
# Summary of the method: as §1
# [41] = target: Gal(b1-4)GlcNAc(b1-2)Man(a1-3)[Man(a1-6)]Man(b1-4)GlcNAc(b1-4)GlcNAc
# Summary of the method: as §1
# [42] = target: Gal(b1-4)GlcNAc(b1-2)Man(a1-6)Man(b1-4)GlcNAc(b1-4)GlcNAc
# Summary of the method: as §1
# [43] = target: Gal(b1-4)GlcNAc(b1-2)Man(a1-6)[GlcNAc(b1-2)Man(a1-3)]Man(b1-4)GlcNAc(b1-4)GlcNAc
# Summary of the method: as §1
# [44] = target: Gal(b1-4)GlcNAc(b1-2)Man(a1-6)[Man(a1-3)]Man(b1-4)GlcNAc(b1-4)GlcNAc
# Summary of the method: as §1
# [45] = target: Gal(b1-4)GlcNAc(b1-2)[Gal(b1-4)GlcNAc(b1-4)]Man(a1-3)[Gal(b1-4)GlcNAc(b1-2)Man(a1-6)]Man(b1-4)GlcNAc(b1-4)GlcNAc
# Summary of the method: as §1
binder,measurement,setting,value
"SpnanA (Streptococcus pneumoniae), P62575 (protein) MVIEKEDVETNASNGQRVDLSSELDKLKKLENATVHMEFKPDAKAPAFYNLFSVSSATKKDEYFTMAVYNNTATLEGRGSDGKQFYNNYNDAPLKVKPGQWNSVTFTVEKPTAELPKGRVRLYVNGVLSRTSLRSGNFIKDMPDVTHVQIGATKRANNTVWGSNLQIRNLTVYNRALTPEEVQKRS",glycan array binding signal (z-score),[1],-0.262
same,glycan array binding signal (z-score),[2],-0.311
same,glycan array binding signal (z-score),[3],-0.246
same,glycan array binding signal (z-score),[4],0.3
same,glycan array binding signal (z-score),[5],-0.204
same,glycan array binding signal (z-score),[6],-0.374
same,glycan array binding signal (z-score),[7],-0.168
same,glycan array binding signal (z-score),[8],-0.24
same,glycan array binding signal (z-score),[9],-0.195
same,glycan array binding signal (z-score),[10],-0.288
same,glycan array binding signal (z-score),[11],-0.283
same,glycan array binding signal (z-score),[12],-0.312
same,glycan array binding signal (z-score),[13],-0.237
same,glycan array binding signal (z-score),[14],-0.328
same,glycan array binding signal (z-score),[15],-0.323
same,glycan array binding signal (z-score),[16],-0.247
same,glycan array binding signal (z-score),[17],-0.229
same,glycan array binding signal (z-score),[18],0.266
same,glycan array binding signal (z-score),[19],-0.15
same,glycan array binding signal (z-score),[20],-0.294
same,glycan array binding signal (z-score),[21],-0.337
same,glycan array binding signal (z-score),[22],-0.218
same,glycan array binding signal (z-score),[23],-0.169
same,glycan array binding signal (z-score),[24],-0.24
same,glycan array binding signal (z-score),[25],0.084
same,glycan array binding signal (z-score),[26],0.077
same,glycan array binding signal (z-score),[27],-0.233
same,glycan array binding signal (z-score),[28],-0.225
same,glycan array binding signal (z-score),[29],-0.262
same,glycan array binding signal (z-score),[30],-0.241
same,glycan array binding signal (z-score),[31],-0.297
same,glycan array binding signal (z-score),[32],-0.205
same,glycan array binding signal (z-score),[33],-0.336
same,glycan array binding signal (z-score),[34],-0.182
same,glycan array binding signal (z-score),[35],-0.324
same,glycan array binding signal (z-score),[36],-0.157
same,glycan array binding signal (z-score),[37],-0.206
same,glycan array binding signal (z-score),[38],-0.044
same,glycan array binding signal (z-score),[39],-0.288
same,glycan array binding signal (z-score),[40],-0.255
same,glycan array binding signal (z-score),[41],0.687
same,glycan array binding signal (z-score),[42],-0.227
same,glycan array binding signal (z-score),[43],-0.241
same,glycan array binding signal (z-score),[44],-0.288
same,glycan array binding signal (z-score),[45],-0.266
